One substance from patent publication US11779630B2, “Peptides and methods of using the same” (SERPIN PHARMA, LLC, priority 2020, dated 2023) can be followed below.

In this assay the test system is IMG microglial cells. Put plainly: LPS induced cytokines in IMG microglial cells, multiplex assay. The conditions noted are these: peptide 100 μg/ml, 24 hours, LPS 100 ng/ml.

For the substance “V K F N K P F V F L M I E Q N T K (VKFNKPFVFLMIEQNTK; listed as Homo sapiens) [SP16]”, the “LPS mediated cytokines (largely TNF-alpha) in supernatant” value is on record as “reduced LPS mediated cytokines (largely TNF-alpha, p<0.02)”.
